Results from paper PMC12040169 (PLOS Biology, 2025).
This is one part of the list.

System: T1, C. trachomatis L2/434/Bu expressing GFP (CTL2-GFP)
T1 construct: L2/434/Bu GFP intracellular growth in HeLa cells
Design: species or system HeLa; C. trachomatis total inclusion area by high-content imaging, normalised to DMSO
Conditions: total inclusion area; 28.5 h, 10 µM; inhibitor
Summary of the method: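 After bulk GFP and resorufin fluorescence reads, cells were fixed, stained with Hoechst and imaged by high-content microscopy. Inclusion area and number (GFP) stood in for chlamydial growth, nuclei count (Hoechst) for host cell viability. MICs were derived as for the bulk readout.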

SMILES | % of control remaining
CCCC(N)CCCCCC(=O)O (centres unmarked) [CBK217078] | 90.4294
CCOC(=O)C1(Cc2ccc(F)cc2F)CCCN(C(C)=O)C1 (centres unmarked) [CBK307516] | 106.965
Cn1c(Cc2cccs2)nnc1SCC(=O)c1c[nH]c2ccccc12 [CBK268534] | 90.4103
Cc1cc(C)cc(OC(C)C(=O)N2CCCc3c(cnn3C)C2)c1 (centres unmarked) [CBK285270] | 91.8527
COc1cccc(CN2C(=O)CC3(C2=O)C(=O)N(CC(=O)c2ccccc2)c2ccccc23)c1 (centres unmarked) [CBK075984] | 101.884
CC12CCCC(=O)N1C(CO)C(c1ccccc1)O2 (centres unmarked) [CBK011013] | 120.792
O=C(O)C(=O)c1cn(Cc2ccccc2Cl)c2ccccc12 [CBK287035] | 78.2027
Oc1cccnc1N1CCN(Cc2ccccc2)CC1 [CBK045849] | 82.0347
Cc1ccc(S(=O)(=O)NCC(=O)Nc2cc3ccccc3c(Br)n2)cc1 [CBK063300] | 93.0548
CCOC(=O)CCCNC(=O)N1CCN(c2ccccc2OC)CC1 [CBK155618] | 92.5878
CC(C)(C)SCCNS(=O)(=O)c1ccc(Cl)c(Cl)c1 [CBK057015] | 20.0101
CN1C(=O)COc2ccccc2C/C=C/C[C@@H]2[C@H]1CCCN2C(=O)c1cnn2cccnc12 [CBK292083] | 88.6685
O=c1[nH]c2ccccc2n1C1CCN(S(=O)(=O)c2cc(Cl)cc(Cl)c2O)CC1 [CBK149694] | 102.23
Cc1cccc2c3c([nH]c12)C1(CCCN(Cc2ccc(F)cc2Cl)C1)NCC3 (centres unmarked) [CBK039339] | 71.8179
O=c1cc(N2CCCCC2)cnn1Cc1nccn1C1CC1 [CBK307484] | 86.1233
CN1CCN(c2cccc(-c3cc(C(F)(F)F)cc(C(F)(F)F)c3)n2)CC1 [CBK036982] | 114.616
O=C(O)c1ccc(CNCCN2CCOCC2)cc1 [CBK287223] | 85.6111
C/C(=N\NC(=O)c1nc(-c2ccccc2)cc(-c2ccccc2)n1)c1cccnc1 [CBK262827] | 88.4041
Cc1noc(C)c1NC(=O)CCc1cccnc1 [CBK200392] | 61.6148
CN(C)CCNC(=O)C(=O)Nc1ccc(Cl)cc1 [CBK266965] | 95.7344
CC(=O)N1CC[C@H]2NC(=O)CNC(=O)C3(CCCC[C@H]2C1)CCN(C(=O)CCn1ccnc1)CC3 [CBK292138] | 72.6245
O=C(Nc1n[nH]c2ccccc12)c1ccccc1 [CBK017993] | 73.8395
CC(=O)Nc1cccc(-c2cnc3[nH]c(=O)n(C4CC4)c3n2)c1 [CBK064859] | 124.132
